Holding throughout (experiment): Viability of human cancer cell lines after 72 h of drug (GDSC screen)
Compound in one test: Oc1cccc(-c2nc(N3CCOCC3)c3oc4ncccc4c3n2)c1 [PI-103]
As to conditions: top dose 10.24 µM. As to the method: (§1)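 Human cancer cell lines in 384-well plates, medium with 10% serum, drug for 72 h over a 256-fold dose range (nine 2-fold or five 4-fold steps up to the top dose). Adherent lines were fixed and stained with the nucleic acid dye Syto60, suspension lines read with resazurin; signal relative to control wells, capped at 0 and 100%. One two-parameter sigmoid per drug and line, fitted in a mixed model over all curves with the slope shared within a line.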

Compound in the next test: COc1cc2c(NC3CCN(C(C)C)CC3)nc(C3CCCCC3)nc2cc1OCCCN1CCCC1 [UNC0638]
As to the method:
as §1

Compound in another test: Cc1cccc(-c2[nH]c(C(C)(C)C)nc2-c2ccc3c(c2)OCO3)n1 [SB-505124]
The note with it: top dose 10 µM; top dose inferred. The protocol:
as §1

Compound in another test: CC1=C(/C=C/C(C)=C/C=C/C(C)=C/C(=O)O)C(C)(C)CCC1 [Tretinoin]
The note with it: top dose 10 µM; top dose inferred. The protocol:
as §1

Compound in the next test: CCn1c(-c2nonc2N)nc2c(C#CC(C)(C)O)ncc(OC[C@H]3CCCNC3)c21 [GSK690693]
The note with it: top dose 10.24 µM; top dose inferred. The protocol: as §1

Compound in the next test: O=C(NCCCNc1nc(Nc2cccc(NC(=O)N3CCCC3)c2)ncc1I)c1cccs1 [BX-795]
As to conditions: top dose 5 µM; top dose inferred. The protocol:
as §1

Where [1] appears, read: top dose 20 µM, screen: GDSC drug entry 1236, top dose inferred.
Setting [2] is: top dose 40 µM, screen: GDSC drug entry 245.

A lower IC50 marks a more sensitive line; a fit beyond the top or the lowest dose is shown as a bound at that dose. AUC, from the same fit, is the share of area under the viability curve across the 256-fold dose range: 1 means no effect, lower means more sensitive. For part of these data: Where the top dose is marked as inferred, it is not printed in the source and was worked back from the curve model. For part of these data: Where an entry number is given, a second screen of the drug exists; the two often differ. A value given as a limit tells only on which side of the number the result lay.

As usually defined, the IC50 is the concentration that inhibits the measured activity by half. On to H2722 (mesothelioma, adherent), for which the AUC in the test with PI-103 amounted to 0.957; with UNC0638 (setting [1]), 0.79; with UNC0638 (setting [2]) it was 0.822; with SB-505124, 0.939; with Tretinoin it was 0.984; with GSK690693, 0.984. For the same cell line, the IC50 with PI-103 was more than 10.2 µM; with UNC0638 (setting [1]) it was 10.9 µM; with UNC0638 (setting [2]), 29.4 µM; in the test with SB-505124, more than 10 µM; with Tretinoin it was more than 10 µM; with GSK690693, more than 10.2 µM.

Consider HCC70 (breast, adherent), for which the AUC with PI-103 was 0.714; with UNC0638 (setting [1]) it was 0.833; with UNC0638 (setting [2]) it was 0.661; with SB-505124, 0.965; in the test with Tretinoin, 0.98; with GSK690693, 0.87. Moreover, the IC50 in the test with PI-103 is 2.54 µM; with UNC0638 (setting [1]), 12.6 µM; with UNC0638 (setting [2]), 6.94 µM; in the test with SB-505124, more than 10 µM; with Tretinoin, more than 10 µM; with GSK690693 it was 9.28 µM.

HT-29 (large intestine, adherent): the AUC stood at 0.973 with PI-103; 0.75 in the test with UNC0638 (setting [1]); 0.657 with UNC0638 (setting [2]); 0.986 in the test with SB-505124; 0.969 with GSK690693; 0.988 with BX-795. Also, the IC50 in the test with PI-103 was more than 10.2 µM; with UNC0638 (setting [1]) it was 6.54 µM; with UNC0638 (setting [2]), 6.81 µM; in the test with SB-505124, more than 10 µM; with GSK690693 it was more than 10.2 µM; in the test with BX-795, more than 5 µM.

Consider HuH-7 (liver, adherent), for which the AUC worked out at 0.976 in the test with PI-103; 0.855 with UNC0638 (setting [1]); 0.839 with UNC0638 (setting [2]); 0.883 with SB-505124; 0.987 with GSK690693; 0.865 in the test with BX-795. The IC50 in the test with PI-103 was more than 10.2 µM; with UNC0638 (setting [1]), 15.8 µM; in the test with UNC0638 (setting [2]), 27.1 µM; in the test with SB-505124, more than 10 µM; with GSK690693, more than 10.2 µM; with BX-795 it was 4.39 µM.

For the cell line LN-405 (glioma, adherent), the AUC in the test with PI-103 was determined as 0.546; with UNC0638 (setting [1]) it was 0.905; in the test with UNC0638 (setting [2]), 0.761; in the test with SB-505124, 0.975; with GSK690693 it was 0.958; with BX-795 it was 0.922. For the same cell line, the IC50 with PI-103 is 0.881 µM; in the test with UNC0638 (setting [1]), more than 20 µM; in the test with UNC0638 (setting [2]) it was 17.7 µM; with SB-505124, more than 10 µM; in the test with GSK690693 it was more than 10.2 µM; with BX-795 it was more than 5 µM.

M059J (glioma, adherent): the AUC turned out to be 0.743 with PI-103; 0.904 in the test with UNC0638 (setting [1]); 0.826 with UNC0638 (setting [2]); 0.98 with SB-505124; 0.98 with GSK690693; 0.739 with BX-795. The IC50 was 3.41 µM in the test with PI-103; more than 20 µM in the test with UNC0638 (setting [1]); 26.9 µM with UNC0638 (setting [2]); more than 10 µM with SB-505124; more than 10.2 µM with GSK690693; 1.61 µM with BX-795.

MDA-MB-157 (breast, adherent): the AUC with PI-103 is 0.904; in the test with UNC0638 (setting [1]), 0.967; with UNC0638 (setting [2]), 0.913; with SB-505124, 0.985; in the test with GSK690693, 0.988; with BX-795 it was 0.74. For the same cell line, the IC50 in the test with PI-103 was more than 10.2 µM; with UNC0638 (setting [1]), more than 20 µM; in the test with UNC0638 (setting [2]), more than 40 µM; in the test with SB-505124, more than 10 µM; in the test with GSK690693 it was more than 10.2 µM; with BX-795, 1.55 µM.

MDA-MB-231 (breast, adherent): the AUC with PI-103 is 0.871; with UNC0638 (setting [1]), 0.956; with UNC0638 (setting [2]) it was 0.859; with SB-505124 it was 0.985; with GSK690693, 0.986; with BX-795, 0.881. The IC50 in the test with PI-103 was more than 10.2 µM; with UNC0638 (setting [1]), more than 20 µM; with UNC0638 (setting [2]), 36.6 µM; with SB-505124, more than 10 µM; in the test with GSK690693, more than 10.2 µM; with BX-795 it was more than 5 µM.

Turning to ME-180 (cervix, adherent), the AUC with PI-103 was determined as 0.209; with UNC0638 (setting [1]) it was 0.978; with UNC0638 (setting [2]) it was 0.895; in the test with SB-505124, 0.924; with GSK690693, 0.535; in the test with BX-795, 0.894. Besides, the IC50 with PI-103 was 0.0851 µM; in the test with UNC0638 (setting [1]), more than 20 µM; with UNC0638 (setting [2]), more than 40 µM; with SB-505124 it was more than 10 µM; with GSK690693, 0.799 µM; with BX-795, more than 5 µM.

As for MFE-319 (endometrium, adherent), the AUC in the test with PI-103 was 0.54; in the test with UNC0638 (setting [1]), 0.979; with UNC0638 (setting [2]), 0.965; in the test with SB-505124, 0.988; with GSK690693, 0.978; with BX-795, 0.95. In addition, the IC50 was 0.819 µM with PI-103; more than 20 µM in the test with UNC0638 (setting [1]); more than 40 µM with UNC0638 (setting [2]); more than 10 µM with SB-505124; more than 10.2 µM in the test with GSK690693; more than 5 µM in the test with BX-795.

MKN1 (stomach, adherent): the AUC in the test with PI-103 came out at 0.638; with UNC0638 (setting [1]), 0.833; with UNC0638 (setting [2]), 0.846; with SB-505124, 0.953; with GSK690693, 0.966; with BX-795 it was 0.883. In addition, the IC50 with PI-103 was 1.57 µM; with UNC0638 (setting [1]) it was 13.9 µM; with UNC0638 (setting [2]), 31.7 µM; with SB-505124, more than 10 µM; with GSK690693 it was more than 10.2 µM; with BX-795, more than 5 µM.
